Results from US8809377B2, “Deubiquitinase inhibitors and methods for use of the same” (The Regents of the University of Michigan, priority 2010, dated 2014).
Like-named read-outs stand apart in the source and are kept apart here.

Test system: Norwalk virus replicon
Settings: for reduction in viral genome titers by qRT-PCR: Norwalk virus replicon, human hepatoma (HuH-7), after 24 hrs of treatment

SMILES: CCC[C@H](NC(=O)/C(C#N)=C/c1cccc(Br)n1)c1ccccc1 [WP1130]
- anti-NV effect (NV genome, qRT-PCR) (HG23 cells, 5 μM, 48 hr post-treatment): significant anti-NV effect
- reduction in viral genome titers by qRT-PCR: 50%
- reduction in viral genome titers by qRT-PCR (listed as HWP1130): 50%
